Laboratory results published in article PMC12136788.
Residue numbers refer to the chain shown, from its start. Some of the results follow.

T1: UNK ZnF1-3 (human, UniProt Q9C0B0 31-174)
T1 sequence: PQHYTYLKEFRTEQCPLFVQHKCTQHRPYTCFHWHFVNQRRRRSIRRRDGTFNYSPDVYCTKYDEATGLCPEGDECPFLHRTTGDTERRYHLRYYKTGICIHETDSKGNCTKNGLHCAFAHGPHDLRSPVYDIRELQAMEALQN

B1: chr9:121621712:121621713:+_ENSMUSG00000032526_ENSMUST00000035113|mus_mus|motif|central (ssRNA)
RNA: GGGAGUUCUACAGUCCGACGAUCCUUUGUGAGACUGCUUGUGUUGGCGUCUGCGAUGGUAGCUAAAUAAAUGAGAUUUCGGUGUAACACAUGCUGAUACUGGACGCACUCGUUCGCUCGGCCCUUAUUCUGAUACUCCACGAUCAACAGAGGAUUGAGCAUCA
B2: 59334095_59334215_266_5pUTR_ENSMUSG00000025234_ENSMUST00000171975|mouse|control|control (ssRNA)
RNA: GGGAGUUCUACAGUCCGACGAUCUCCUCGCUGCACUCCUCGUCCUCGUCGAACUCGUAGUUGUAGCCCUCGUCCGAGUCCAUGGCGCGACGCGCGCGGGCCCGGCAGACGCUGGCCGCGGCGCGGAGAGGGCGGGGACGCCGACAACAGAGGAUUGAGCAUCA
B3: chr22:36164377:36164378:-_ENSG00000100320_ENST00000405409|hu_mus|FALSE|FALSE (ssRNA)
RNA: GGGAGUUCUACAGUCCGACGAUCACGGCCCUCUACCACGGUGCCGUGCAAUUUCUCCCUGGCCCUGUCUGCAUCAGCACUAUUCUCGAAAGUUACGAACCCGAAUCCCUUGGAGCCGCGCUCAUUAAAGAUUAUUUCCACAUCCAACAGAGGAUUGAGCAUCA
B4: chr7:23387248:23387249:-_ENSG00000136231_ENST00000258729|hu_mus|FALSE|FALSE (ssRNA)
RNA: GGGAGUUCUACAGUCCGACGAUCGAUCUUCAAGGGAAUCUCCUCUGUGAAUUUUAUAUCUUGAGCUUCCUUAUGCAUAAUCUCCAGAAUAGACUUACAAGCUGCAGAGGUGCCUUCAGGGGUAGAGAGGAUAGUAAUGGACUUCAACAGAGGAUUGAGCAUCA
B5: chr3:33945423:33945424:+_ENSMUSG00000027680_ENSMUST00000167354|mus_hu|motif|central (ssRNA)
RNA: GGGAGUUCUACAGUCCGACGAUCGGUAUUUUUUUUGACAGUUUUAUUUUGAUUGACAGGCCGAAGUCGUUCAAAUGUGACGGUUUCAUUGUAAGUAGCGUCACAAGCAGCAUAUUCAAUGACAUAAAAUUCUCCUUUCAUCAUCAACAGAGGAUUGAGCAUCA
B6: chr4:17488853:17488854:-_ENSG00000151552_ENST00000428702|hu_hu|motif|central (ssRNA)
RNA: GGGAGUUCUACAGUCCGACGAUCUAGGCUUCCUGAGCUCGGUCGGUUUUUCCCUGUGAUCCAGUCAUGGAAAGUUUCAACGGGGAAUUCUAAGGGUGUCCAGGAGCUGAAGUCAGCCUCAGGCAUUGAUUUCCUGUUCAUCGGCAACAGAGGAUUGAGCAUCA
B7: chr5:128440902:128440903:+_ENSG00000066583_ENST00000173527|hu_mus|hu_hu_hu_mus_True|1_38 (ssRNA)
RNA: GGGAGUUCUACAGUCCGACGAUCUUGAACGGUGCUGCCAAGUCCUUUGGGGUAUUGUUCCGUUAUGAUAACUGGAAUCCCUAAGAUCCGAGCUCCUUGCAACAAUCUCUGUCCCACACUAAUGAUGUCCCCAAAGUACUUGAUCAACAGAGGAUUGAGCAUCA
B8: chr16:10423590:10423591:+_ENSMUSG00000022503_ENSMUST00000023146|mus_mus|motif|central (ssRNA)
RNA: GGGAGUUCUACAGUCCGACGAUCUGGGAGUCCUGUGACUCAGAGAGUUCCUAGUCCCUUGGAUUCCAGGAAGCAGGCCCGGAGGGAUAGGUUCAAGGAGACAUUUUUAUUUUCUGAUGAAUGGCACCUGGAUGCAGAGCGCCCCAACAGAGGAUUGAGCAUCA
B9: 76226851_76226971_1228_CDS_ENSG00000117054_ENST00000370834|human|control|control (ssRNA)
RNA: GGGAGUUCUACAGUCCGACGAUCAGUAGCUAACUGAUUUGCAAUAUCUCCAGCAAAUGCCUUUGCAAUAGAAGCAUAAUAGGUAUUUCGACGACCAGAAUCAACCUCCCAAGCUGCUCUCUGGUAACUCAUUCUAGCUAGUUCCAACAGAGGAUUGAGCAUCA
B10: chr5:37341331:37341332:-_ENSG00000113569_ENST00000381843|hu_mus|FALSE|FALSE (ssRNA)
RNA: GGGAGUUCUACAGUCCGACGAUCUGUCAGUGUAUUCGGCCGAGCUAAUGGCUGUCUAAACGGACAAGUGCUGAAAUACAGCCUUACACCUGCGUGAGUGACAGCCAGUAACUGACAGUCCAGGGAUUCAGAACUCUCAAUCACCAACAGAGGAUUGAGCAUCA
B11: 8834627_8836091_1177_3pUTR_ENSMUSG00000021147_ENSMUST00000021572|mouse|control|control (ssRNA)
RNA: GGGAGUUCUACAGUCCGACGAUCUCACCACGAGCCGCUGGGUGGGGUGAGUGCAACAAUGUGUUAACUCCUGGUCAUGCCCUGUCAGGGAAUGAACGAGUUCAGAUGUCUCCACAUCAUACAGGUUGGCAGUUCUGUCCCAUGCAACAGAGGAUUGAGCAUCA
B12: chr5:22970553:22970554:+_ENSMUSG00000029004_ENSMUST00000094962|mus_mus|motif|central (ssRNA)
RNA: GGGAGUUCUACAGUCCGACGAUCAGCACUGGAAGUUUCAUCAAAAUUAGGAGUGGUAAAUAUGCCUACUUCGUUUUUGCGGAUGAGACCUGAUGGAGGAGGGGAUGCUGGAGGUGUUGGAGGAGGACGAGCACCAUAAUUAUGCAACAGAGGAUUGAGCAUCA
B13: chr19:8913615:8913616:-_ENSMUSG00000071658_ENSMUST00000096259|mus_hu|mus_mus_mus_hu_False|18_78 (ssRNA)
RNA: GGGAGUUCUACAGUCCGACGAUCAGGGUACCAAAACCUUCUGCCUGAAAUGGGUGCCCCACCCUGCAGGGAGUUGCAGCUGAAAGUAUCUGAUGCAGAAGCAGUGACUAUACGAAAGGUCACUAGAGGGGAGGGCCAGGCCAGCAACAGAGGAUUGAGCAUCA
B14: chr19:8913615:8913616:-_ENSMUSG00000071658_ENSMUST00000096259|mus_hu|mus_mus_mus_hu_False|18_48 (ssRNA)
RNA: B13 RNA with U64A, C66U, U90C, A92U, U93A
B15: chr11:68315578:68315579:+_ENSG00000110075_ENST00000393800|perfect_dup|FALSE|FALSE (ssRNA)
RNA: GGGAGUUCUACAGUCCGACGAUCUGGAGGUUCGAUACACGUCAGGAGCCUGAGCAACAAAUCCAUGAUAGCAGAAGUUCCUAUGUGCUUUAUAAUAAGGUCUACAAAAUCAUGCUUCUUCUUUAAGAAAUCCACAAUCUGUUCCAACAGAGGAUUGAGCAUCA
B16: chr2:216981417:216981418:+_ENSG00000079246_ENST00000392132|hu_hu|hu_hu_hu_mus_True|1_18 (ssRNA)
RNA: GGGAGUUCUACAGUCCGACGAUCCUGAUACUGGUCCUUGCCAGCAAGGGCAUUAUCAGUGCCAUCUGUGCCAUAGAGGACUAACGCAAUCUCAUCUUUGCUCUCCGAAAAUACCUGUCGCUGUACAAACAUAGUCAUCACCUUCAACAGAGGAUUGAGCAUCA
B17: 26743308_26743658_2015_CDS_ENSMUSG00000024921_ENSMUST00000025862|mouse|control|control (ssRNA)
RNA: GGGAGUUCUACAGUCCGACGAUCCUCCUCGUAGUCCGAUUCACUCUCUUCACUGUCAGAUCUGGGUGCAACUUCGUAACCAGGAUUCAUCUCCAGCCAGGCAUCCAGCUGACUUGCUUUGGGUGCUUCUGGUCCAAAGAGGACCAACAGAGGAUUGAGCAUCA
B18: chr14:76904430:76904431:+_ENSMUSG00000022010_ENSMUST00000022587|mus_mus|mus_mus_mus_hu_True|48_48 (ssRNA)
RNA: GGGAGUUCUACAGUCCGACGAUCUGCAGCCAAAAACACCCUCGUGGAAAAAAAGAGGGAACACCAGCAGCCUUGUAUAAGCUAGAUAAAACCGCCUGGCUUUCCGCAGCCCAGGGAGAAACAGAAAACGGCAGCCCUAAUUUACAACAGAGGAUUGAGCAUCA
B19: chr17:61432403:61432404:+_ENSG00000170921_ENST00000424789|hu_mus|FALSE|FALSE (ssRNA)
RNA: GGGAGUUCUACAGUCCGACGAUCCUUCAUAUUGCACUGGAGUAAAUAAACCUCAGAGAGCGAAACAGGAACGACUUUGUAGCUAGAACUCUUUAGCACUAGGUAGCCUUUCUCUAUGAGGUCAAAUGUGAGUUUCAGGUAUAGCAACAGAGGAUUGAGCAUCA
B20: 23884564_23898749_423_CDS_ENSMUSG00000026155_ENSMUST00000027339|mouse|control|control (ssRNA)
RNA: GGGAGUUCUACAGUCCGACGAUCUCGAAAGUUCUCUGGAAGAUUGGCUUCAUAAAGUAGUCUUGCUUUAGUAUUUCCCAUAUCUUGCAUGCACUGUAUCUGUUCUGGUGUCCAUUGGUCUAGGUUGACUGACUUGACUCUGGACAACAGAGGAUUGAGCAUCA
B21: 120564217_120564337_5200_3pUTR_ENSMUSG00000090100_ENSMUST00000028740|mouse|control|control (ssRNA)
RNA: GGGAGUUCUACAGUCCGACGAUCUUUAGAUGUCAACAGCAGCUAUAAACAAGAAUUCAGGCCUGAGUUUCUUCCCCUUGGACUGUGCUGGACUGACGCUUCCUGUGCAGAGGCACGGACUCCUCAUGUGCUUCCUACCUGCCCCAACAGAGGAUUGAGCAUCA
B22: chr17:65740002:65740003:+_ENSG00000130935_ENST00000581375|hu_hu|hu_hu_hu_mus_False|18_18 (ssRNA)
RNA: GGGAGUUCUACAGUCCGACGAUCAACAAAUCUUUCUUCCCUGGACGAACAGGAAGAUUCAUAUUAAAAAAAAUAUAUAUCCAUCAAGUUAGGUGUGGUGGCCACACCUUUACUCCCCACUUCAAUUGAGGUGGAUCUCUGAGUCAACAGAGGAUUGAGCAUCA

target: T1, UNK ZnF1-3; assay: nsRBNS (natural sequence RNA bind-n-seq); RBNS binding buffer (assumed for nsRBNS): 25 mM Tris pH 7.5, 150 mM KCl, 3 mM MgCl2, 0.01% Triton X-100, 500 ug/ml BSA, 20 U/ml SUPERase-In, 4 C; UNK is unkempt and MSI1 is Musashi-1; names of the RNAs are library labels; protein concentration not given here; high values mean tight binding

Binder | binding signal
B1 | 0.693 enrichment R
B2 | 0.207 enrichment R
B3 | 1.19 enrichment R
B4 | 1.34 enrichment R
B5 | 0.595 enrichment R
B6 | 1.08 enrichment R
B7 | 0.59 enrichment R
B8 | 1.57 enrichment R
B9 | 0.967 enrichment R
B10 | 0.729 enrichment R
B11 | 0.851 enrichment R
B12 | 2.93 enrichment R
B13 | 1.33 enrichment R
B14 | 1.89 enrichment R
B15 | 1.38 enrichment R
B16 | 0.82 enrichment R
B17 | 0.781 enrichment R
B18 | 2.18 enrichment R
B19 | 1.07 enrichment R
B20 | 0.689 enrichment R
B21 | 1 enrichment R
B22 | 0.736 enrichment R
